Source: patent EP4793292A1, “POLYPEPTIDE DERIVATIVE, PHARMACEUTICAL COMPOSITION THEREOF AND USE THEREOF” (Biocells (Beijing) Biotech Co., Ltd., priority 2023, dated 2025)
At least one peptide structure holds a part that was inferred or is arguable (an end, a ring closure or a residue). Some compounds share one wording; it may come from a single statement. Starred links: 1 amine or outer side, 2 acyl side, 3 side chain; linkers in the order of their positions; H or OH if unused. Positions of bridges follow the written chain, without caps; N, C: chain ends. Non-standard residues stand in square brackets, D forms with d. Residues, ends and D or L forms follow the SMILES beside them. Groups on a side chain read outwards from the residue. *: point of attachment. C18 diacid = O=C(O)CCCCCCCCCCCCCCCCC(=O)*; γGlu = O=C(O)[C@H](CCC(=O)[*:2])N[*:1]; AEEA = NCCOCCOCC(=O)O

Test system: SH-SY5Y cells
Assay: Axonal growth of RA-differentiated SH-SY5Y cells on proteoglycan (ACAN) coating
Type: cell-based, human
Conditions: PW polypeptide 2.5 µM, 72 h, proteoglycan (ACAN)-coated plate, FIG. 1
Procedure: Therefore, RA-induced differentiated SH-SY5Y can be used to simulate neuronal axonal growth in vitro and to test the effects of PW polypeptides on axonal growth.
Preparation of culture medium for SH-SY5Y: 1) DMEM/F12 + 10% FBS + 1 × penicillin-streptomycin + 1 mM sodium pyruvate; 2) DMEM/F12 + 1% FBS + 1 × penicillin-streptomycin + 1 mM sodium pyruvate. Preparation of 50 mM retinoic acid stock solution: 15.02 mg of retinoic acid was weighed and dissolved in 1 mL of dimethyl sulfoxide (DMSO), aliquoted, and frozen at -80°C. Proteoglycan (ACAN/CSPG1) is a type of chondroitin sulfate proteoglycan (CSPG). Preparation of 1 mg/mL proteoglycan stock solution: 1 mg of ACAN solid was dissolved in 1 mL of distilled water, aliquoted, and frozen at -80°C. Preparation of PW polypeptide solution for cells (1 mM): the corresponding mass of polypeptide powder was weighed, dissolved in PBS and filtered through a 0.2 µm filter membrane, aliquoted, and frozen at -20°C.
The 1 mg/mL proteoglycan was diluted to 250 µg/mL with distilled water to coat a 24-well cell culture plate: each well was coated with 3 droplets of ACAN, 2 µL per droplet. Using the culture medium containing 10% FBS, SH-SY5Y cells were seeded in the proteoglycan-coated 24-well plate (20,000 cells/well) and incubated (37°C, 5% CO2) for 20 h. The medium was replaced with a culture medium containing 1% FBS, and PW polypeptide (2.5 µM) or an equal volume of PBS solution was added. After incubation for 72 h, the cells were fixed with 4% paraformaldehyde (room temperature, 30 min), and cell morphology was photographed and recorded using a 10× optical microscope. 20-30 cells were randomly selected under each field of view, and axonal length was measured using Image J-SNT.
Data analysis: All measured axonal lengths within each proteoglycan-coated range were averaged to serve as one data point. One-way analysis of variance and Tukey's test were used to compare the differences between groups. P<0.05 was considered as a significant difference.

Row | Compound | effect of promoting axonal growth compared with the scrambled polypeptide (Scr, negative control) | promoting effect on axonal growth compared with PW6
1 | CC[C@H](C)[C@H](NC(=O)[C@H](CO)NC(=O)[C@H](CCC(=O)O)NC(=O)[C@H](Cc1ccc(O)cc1)NC(=O)[C@H](CCC(=O)O)NC(=O)[C@H](CCC(N)=O)NC(=O)[C@H](CO)NC(=O)[C@H](CC(C)C)NC(=O)[C@H](CCCCNC(=O)COCCOCCNC(=O)COCCOCCNC(=O)CC[C@H](NC(=O)CCCCCCCCCCCCCCCCC(=O)O)C(=O)O)NC(=O)[C@H](CC(C)C)NC(=O)[C@H](CO)NC(=O)[C@H](CC(=O)O)NC(=O)[C@H](CC(N)=O)NC(=O)[C@H](C)NC(=O)[C@H](CCCCN)NC(=O)[C@H](CC(C)C)NC(=O)[C@H](CCCNC(=N)N)NC(=O)[C@H](CCC(=O)O)NC(=O)[C@@H](NC(=O)[C@H](Cc1c[nH]cn1)NC(=O)[C@H](CCC(=O)O)NC(=O)[C@H](C)NC(=O)[C@H](CCSC)NC(=O)[C@H](CC(=O)O)NC(=O)[C@H](CCCNC(=N)N)NC(=O)[C@H](CCCNC(=N)N)NC(=O)[C@H](CCCNC(=N)N)NC(=O)[C@H](CCC(N)=O)NC(=O)[C@H](CCCNC(=N)N)NC(=O)[C@H](CCCNC(=N)N)NC(=O)[C@H](CCCCN)NC(=O)[C@H](CCCCN)NC(=O)[C@H](CCCNC(=N)N)NC(=O)CN)[C@@H](C)O)C(N)=O [PW-182] (H-GRKKRRQRRRDMAEHTERLKANDSLK([AEEA-AEEA-γGlu-C18 diacid])LSQEYESI-NH2) | significant effect of promoting axonal growth | significantly enhanced
2 | CC[C@H](C)[C@H](NC(=O)[C@H](CO)NC(=O)[C@@H]1CCC(=O)NCCCC[C@H](NC(=O)[C@H](CC(C)C)NC(=O)[C@H](CO)NC(=O)[C@H](CC(=O)O)NC(=O)[C@H](CC(N)=O)NC(=O)[C@H](C)NC(=O)[C@H](CCCCN)NC(=O)[C@H](CC(C)C)NC(=O)[C@H](C)NC(=O)[C@H](CCC(=O)O)NC(=O)[C@@H](NC(=O)[C@H](Cc2c[nH]cn2)NC(=O)[C@H](CCC(=O)O)NC(=O)[C@H](C)NC(=O)[C@H](CCSC)NC(=O)[C@H](CC(=O)O)NC(=O)[C@H](CCCNC(=N)N)NC(=O)[C@H](CCCNC(=N)N)NC(=O)[C@@H](CCCNC(=N)N)NC(=O)[C@H](CCC(N)=O)NC(=O)[C@@H](CCCNC(=N)N)NC(=O)[C@H](CCCNC(=N)N)NC(=O)[C@H](CCCCN)NC(=O)[C@H](CCCCN)NC(=O)[C@@H](CCCNC(=N)N)NC(=O)CN)[C@@H](C)O)C(=O)N[C@@H](CC(C)C)C(=O)N[C@@H](CO)C(=O)N[C@@H](CCC(N)=O)C(=O)N[C@@H](CCC(=O)O)C(=O)N[C@@H](Cc2ccc(O)cc2)C(=O)N1)C(N)=O [PW-240, NH2-GrKKRrQrRR-DMAEHTEALKANDSLcyclo(KLSQEYE)SI-NH2] (H-G[dR]KKR[dR]Q[dR]RRDMAEHTEALKANDSLKLSQEYESI-NH2; lactam 26-32) | significant effect of promoting axonal growth | not significantly enhanced
3 | CC[C@H](C)[C@H](NC(=O)[C@H](CO)NC(=O)[C@H](CCC(=O)O)NC(=O)[C@H](Cc1ccc(O)cc1)NC(=O)[C@H](CCC(=O)O)NC(=O)[C@H](CCC(N)=O)NC(=O)[C@H](CO)NC(=O)[C@H](CC(C)C)NC(=O)[C@H](CCCCN)NC(=O)[C@H](CC(C)C)NC(=O)[C@H](CO)NC(=O)[C@H](CC(=O)O)NC(=O)[C@H](CC(N)=O)NC(=O)[C@H](C)NC(=O)[C@H](CCCCNC(=O)COCCOCCNC(=O)COCCOCCNC(=O)CC[C@H](NC(=O)CCCCCCCCCCCCCCCCC(=O)O)C(=O)O)NC(=O)[C@H](CC(C)C)NC(=O)[C@H](C)NC(=O)[C@H](CCC(=O)O)NC(=O)[C@@H](NC(=O)[C@H](Cc1c[nH]cn1)NC(=O)[C@H](CCC(=O)O)NC(=O)[C@H](C)NC(=O)[C@H](CCSC)NC(=O)[C@H](CC(=O)O)NC(=O)[C@H](CCCNC(=N)N)NC(=O)[C@H](CCCNC(=N)N)NC(=O)[C@@H](CCCNC(=N)N)NC(=O)[C@H](CCC(N)=O)NC(=O)[C@@H](CCCNC(=N)N)NC(=O)[C@H](CCCNC(=N)N)NC(=O)[C@H](CCCCN)NC(=O)[C@H](CCCCN)NC(=O)[C@@H](CCCNC(=N)N)NC(=O)CN)[C@@H](C)O)C(N)=O [PW-242] (H-G[dR]KKR[dR]Q[dR]RRDMAEHTEALK([AEEA-AEEA-γGlu-C18 diacid])ANDSLKLSQEYESI-NH2) | significant effect of promoting axonal growth | no significant difference
4 | CC[C@H](C)[C@H](NC(=O)[C@H](CO)NC(=O)[C@H](CCC(=O)O)NC(=O)[C@H](Cc1ccc(O)cc1)NC(=O)[C@H](CCC(=O)O)NC(=O)[C@H](CCC(N)=O)NC(=O)[C@H](CO)NC(=O)[C@H](CC(C)C)NC(=O)[C@H](CCCCN)NC(=O)[C@H](CC(C)C)NC(=O)[C@H](CO)NC(=O)[C@H](CC(=O)O)NC(=O)[C@H](CC(N)=O)NC(=O)[C@H](C)NC(=O)[C@H](CCCCN)NC(=O)[C@H](CC(C)C)NC(=O)[C@H](CCCCNC(=O)COCCOCCNC(=O)COCCOCCNC(=O)CC[C@H](NC(=O)CCCCCCCCCCCCCCCCC(=O)O)C(=O)O)NC(=O)[C@H](CCC(=O)O)NC(=O)[C@@H](NC(=O)[C@H](Cc1c[nH]cn1)NC(=O)[C@H](CCC(=O)O)NC(=O)[C@H](C)NC(=O)[C@H](CCSC)NC(=O)[C@H](CC(=O)O)NC(=O)[C@H](CS)NC(=O)[C@H](CCCNC(=N)N)NC(=O)[C@H](CCCNC(=N)N)NC(=O)[C@H](CCCNC(=N)N)NC(=O)[C@H](CCC(N)=O)NC(=O)[C@H](CCCNC(=N)N)NC(=O)[C@H](CCCNC(=N)N)NC(=O)[C@H](CCCCN)NC(=O)[C@H](CCCCN)NC(=O)[C@H](CCCNC(=N)N)NC(=O)CN)[C@@H](C)O)C(N)=O [PW-247] (H-GRKKRRQRRRCDMAEHTEK([AEEA-AEEA-γGlu-C18 diacid])LKANDSLKLSQEYESI-NH2) | significant effect of promoting axonal growth | no significant difference
5 | CC[C@H](C)[C@H](NC(=O)[C@H](CO)NC(=O)[C@H](CCC(=O)O)NC(=O)[C@H](Cc1ccc(O)cc1)NC(=O)[C@H](CCC(=O)O)NC(=O)[C@H](CCC(N)=O)NC(=O)[C@H](CO)NC(=O)[C@H](CC(C)C)NC(=O)[C@H](CCCCN)NC(=O)[C@H](CC(C)C)NC(=O)[C@H](CO)NC(=O)[C@H](CC(=O)O)NC(=O)[C@H](CC(N)=O)NC(=O)[C@H](C)NC(=O)[C@H](CCCCNC(=O)COCCOCCNC(=O)CC[C@H](NC(=O)CCCCCCCCCCCCCCCCC(=O)O)C(=O)O)NC(=O)[C@H](CC(C)C)NC(=O)[C@H](CCCNC(=N)N)NC(=O)[C@H](CCC(=O)O)NC(=O)[C@@H](NC(=O)[C@H](Cc1c[nH]cn1)NC(=O)[C@H](CCC(=O)O)NC(=O)[C@H](C)NC(=O)[C@H](CCSC)NC(=O)[C@H](CC(=O)O)NC(=O)[C@H](CCCNC(=N)N)NC(=O)[C@H](CCCNC(=N)N)NC(=O)[C@@H](CCCNC(=N)N)NC(=O)[C@H](CCC(N)=O)NC(=O)[C@@H](CCCNC(=N)N)NC(=O)[C@H](CCCNC(=N)N)NC(=O)[C@H](CCCCN)NC(=O)[C@H](CCCCN)NC(=O)[C@@H](CCCNC(=N)N)NC(=O)CN)[C@@H](C)O)C(N)=O [PW-257] (H-G[dR]KKR[dR]Q[dR]RRDMAEHTERLK([AEEA-γGlu-C18 diacid])ANDSLKLSQEYESI-NH2) | significant effect of promoting axonal growth | no significant difference
